# From PubChem BioAssay AID1345083 (National Center for Advancing Translational Sciences (NCATS), 2018)
# Values joined by “and” are separate entries in the source; they are usually repeats but may differ in a detail not shown here. Equal entries are not always repeated. The whole screen tested about 94,000 compounds, of which about 6,200 (6.6%) were called active. Inconclusive means that the source gave no clear call. Such entries were picked first, then a sample of the others. The call rests on the fitted dose curve; in most records, active means well fitted inhibition curve with a large enough effect; inconclusive means small, poorly fitted or top-dose-only effect; inactive means flat fitted curve, though single readings scatter. Potencies beside an inconclusive call are fits to weak or partial responses and may not hold up.
# Assay: Cytotoxic Profiling in HEK 293 Cell Line of Diverse Libraries Using Quantitative High-Throughput Screening; further: nearly all actives have a fitted effect of over 60% in size
# Details: HEK 293 viability, ATP luminescence (CellTiter-Glo), 48-72 h; series mostly up to 115 µM
# Summary of the method: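 HEK 293 cells at 250 cells/well were exposed to compounds by pintool transfer for 48 or 72 hr at 37 degree Celsius, 5% CO2. Viability was read as ATP-coupled luminescence with CellTiter-Glo after 10 min at room temperature.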
# Potency means the concentration at half of the fitted maximal effect; tags describe the fitted curve by direction and shape.
row,Compound,Potency
1,Cc1ccccc1OCc1nc(C2CN(C(=O)COc3ccc(F)cc3)C2)no1,"inconclusive: 89.1 µM [inhibitor, single point]"
2,COc1ccc(-c2[nH]nc3ncc(C(=O)N4C[C@@H](C)O[C@@H](C)C4)nc23)c(C)c1,"inconclusive: 56.2 µM [inhibitor, full curve, poor fit]"
3,Cc1ccc(NC(=O)Nc2ccc(C)n(CC(=O)NCC(C)C)c2=O)cc1,"inconclusive: 79.4 µM [inhibitor, partial curve, poor fit]"
4,Cc1ccccc1N1Cc2c(NCc3cccc(Cl)c3)ncnc2N(C)CC1=O,"inconclusive: 56.2 µM [inhibitor, partial curve, poor fit]"
5,O=C(c1ccccn1)N1CC(Oc2ccc3c(c2)OCO3)C1,"inconclusive: 63.1 µM [inhibitor, partial curve, poor fit]"
6,O=C1c2cccnc2OC(COc2ccccc2)CN1c1ccccc1 (stereo not drawn),"inconclusive: 39.8 µM [inhibitor, single point]"
7,COc1ccc(NC(=O)N[C@H]2CO[C@H]3[C@@H]2OC[C@@H]3n2cc(CN(C)Cc3ccccc3)nn2)cc1,"inconclusive: 89.1 µM [inhibitor, single point]"
8,COCCn1c(=O)n([C@H]2CCCN(C(=O)c3nn(C)c4ccccc34)C2)c2ncccc21,"inconclusive: 50.1 µM [inhibitor, partial curve, poor fit]"
9,COc1ccc(NC(=O)N2CCc3c(C(=O)NCCCN4CCCC4=O)cccc32)cc1,"inconclusive: 79.4 µM [inhibitor, partial curve, poor fit]"
10,COc1ccccc1-c1ccc(C(=O)N2CCC(C(=O)NCC(F)(F)F)CC2)cc1,"inconclusive: 50.1 µM [inhibitor, partial curve, poor fit]"
11,O=C(Nc1ccc2c(c1)OCCO2)N1CC2(CCCCC2)CC1COc1ccncc1 (stereo not drawn),inactive
12,O=C(CC(c1ccccc1)c1ccccc1Cl)N(Cc1cccnc1)C1CC1 (stereo not drawn),active: 35.5 µM
13,Cc1ccc(CN2CCOc3ccc(CCC(=O)NCC4CC4)cc3C2)o1,"inconclusive: 79.4 µM [inhibitor, partial curve, poor fit]"
14,O=C1NCN(Cc2ccc(Cl)cc2)C12CCN(Cc1ccc(OC(F)(F)F)cc1)CC2,"inconclusive: 50.1 µM [inhibitor, partial curve, poor fit]"
15,CC1=C[C@@H](CNCc2ccncc2)[C@H](C(C)C)C[C@H]1Cc1nnc(-c2ccc(C)cc2)o1,"inconclusive: 39.8 µM [inhibitor, partial curve, poor fit]"
16,CCCC(=O)NC1CCN(c2ccnc3ccnn23)CC1,inactive
17,Cc1cccc(CN2CCCCCCNC(=O)[C@@H]3CCC[C@@H]32)c1,"inconclusive: 56.2 µM [inhibitor, partial curve, poor fit]"
18,COCC(=O)NCCNC(=O)c1cccc(-c2cc(F)ccc2OC)c1,inactive
19,CC(C)(Oc1nn(CC2CC2)c2ccc(CN3CCCC3)cc12)C(=O)NC1CC1,"inconclusive: 126 µM [inhibitor, single point]"

row,Compound,Potency
1,COc1ccc(CN2C[C@H](O)C[C@H]2c2nc(-c3ccc(OC)cc3)no2)cc1,"inconclusive: 100 µM [inhibitor, partial curve]"
2,CNC(=O)c1cc(C2CC2)nc2onc(C3CCCN(C(=O)c4ccc(Cl)nc4)C3)c12 (stereo not drawn),inactive
3,COCCCNC(=O)C1CCCCc2nnc(-c3ccccc3)n21 (stereo not drawn),inactive
4,COCCn1cc(CN2CCN(Cc3cccc(F)c3)CC2)ccc1=O,"inconclusive: 89.1 µM [inhibitor, partial curve, poor fit]"
5,COc1cccc(NCc2nnc(C(=O)N3CCC[C@@H]3c3ccc(Br)cc3)n2Cc2ccccc2)c1,"inconclusive: 31.6 µM [inhibitor, full curve]"
6,N#Cc1cccc(CN2CCCCC23Cc2ccccc2CNC3=O)c1 (stereo not drawn),"inconclusive: 79.4 µM [inhibitor, partial curve, poor fit]"
7,O[C@@H]1CN(CC2CCNCC2)CC[C@H]1c1ccc2ccccc2c1,"inconclusive: 56.2 µM [inhibitor, partial curve, poor fit]"
8,C=CCN(C)C(=O)C[C@@H]1c2nc(NC(=O)CCCCC)sc2C[C@@H]2[C@](C)(CO)[C@H](O)CC[C@]21C,inactive
9,Cc1ccc(NC(=O)c2cc3n(n2)CC(c2ccc4c(c2)OCO4)OC3)cc1 (stereo not drawn),"inconclusive: 44.7 µM [inhibitor, partial curve, poor fit]"
10,O=C(c1ccccc1F)N1CCC2(CC1)Cc1ccccc1NC2=O,active: 50.1 µM
11,Cc1cnc(C(=O)N[C@@H]2CCC[C@@H]2C(=O)NCc2ccccc2F)cn1,inactive
12,COc1ccc(NC(=O)[C@@H]2C[C@@H](c3ccc(F)cc3)N(Cc3ccccc3)C2)cn1,"inconclusive: 28.2 µM [inhibitor, full curve, poor fit]"
13,COc1ccc(CNC[C@H]2O[C@H](Cc3cc(-c4ccccc4)on3)CC[C@@H]2O)cc1,active: 89.1 µM
14,Cc1noc(C)c1CN1CCNc2cc(Nc3cccnc3)ncc2C1,"inconclusive: 79.4 µM [inhibitor, partial curve]"
15,COc1ccc(CN2CCc3ncc(C(=O)N4CCC(c5ccccc5)CC4)n3CC2)cn1,"inconclusive: 35.5 µM [inhibitor, partial curve]"
16,COCCn1c(C)nnc1-c1cc(-c2ccc(OC)c(OC)c2)ccn1,inactive
17,COc1cccc(-c2cc(C(=O)NCc3cccs3)c3cnn(C)c3n2)c1,"inconclusive: 20 µM [inhibitor, full curve, poor fit] and inconclusive: 50.1 µM [inhibitor, partial curve, poor fit]"
18,COc1ccc(CCNC(=O)CN2C(=O)NC(c3ccc(Cl)cc3)C3=C2COC3=O)cc1OC (stereo not drawn),"inconclusive: 35.5 µM [inhibitor, partial curve]"
19,COc1ccc(N2CC3CCC(C2)N3Cc2ccc(Cl)cc2)cc1,"inconclusive: 50.1 µM [inhibitor, partial curve, poor fit]"
